Experimental data taken from PubChem BioAssay AID1508642 (National Center for Advancing Translational Sciences (NCATS), 2021).
Screen size: about 43,000 compounds; about 200 (0.47%) were called active. This list was built around the results that the source calls inconclusive (neither active nor inactive); the mix of calls is not that of the screen. The call rests on the fitted dose curve; in most records, active means well fitted cell-killing curve with a large enough effect; inconclusive means small, poorly fitted or top-dose-only effect, or effect the other way; inactive means flat fitted curve, though single readings scatter. Potencies of inconclusive entries are doubtful fits and often do not repeat.

Assay: Cell viability qHTS assay in S16 Pmp22-F2sN cells; further: nearly all actives have a fitted effect of over 65% in size
Settings: S16 Pmp22-F2sN Schwann cells viability, CellTiter-Glo, 24 h; series mostly up to 57.5 µM
Method in brief: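 S16 Pmp22-F2sN Schwann cells (500-1,000/well) in phenol-red-free DMEM with 10% FBS received 23 nL compound by pin tool for 24 h at 37 °C. Viability was then read as CellTiter-Glo luminescence after 15 min at room temperature.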
Potency means the concentration at half of the fitted maximal effect; tags describe the fitted curve by direction and shape.

Compound	Potency
O=C(c1cn(CCOc2ccc(Cl)cc2)c2ccccc12)C1CCCCC1	inconclusive: 31.6 µM [cytotoxic, single point]
CC(=O)c1c(C)oc2ccc(N(C(=O)c3ccncc3)S(=O)(=O)c3ccc(C)cc3C)cc12	inactive
CC(C)OCc1cc(CN2CCN(c3ccccc3)CC2)c(O)c2ncccc12	inconclusive: 1.58 µM [cytotoxic, full curve, poor fit]
Cc1cccc(CC(=O)NCCc2csc(-c3ccc(C(F)(F)F)cc3)n2)c1	inconclusive: 39.8 µM [cytotoxic, partial curve, poor fit]
CCOC(=O)c1ccc(N2C(=O)c3n[nH]c(-c4ccco4)c3C2c2ccc(F)cc2)cc1 (configuration not stated)	inconclusive: 14.1 µM [rising, partial curve]
COc1ccc(NC(=O)c2c(NCc3cccc(F)c3)sc3c2CCCC3)c(OC)c1	inconclusive: 39.8 µM [cytotoxic, single point]
Cc1cc2nc(-c3cccc(NC(=O)COc4ccc(Cl)c(C)c4)c3)oc2cc1C	inactive
CCCCN(C)CCNC(=O)c1ccc2c(c1)NC(=O)CN2	inconclusive: 39.8 µM [cytotoxic, single point]
CCOc1ccc(C2C(C(=O)Nc3ccc(Cl)cc3)=C(C)Nc3nc(C(F)(F)F)nn32)cc1 (configuration not stated)	inactive
Oc1ccc(NCc2ccc(OCc3ccccc3Cl)cc2)cc1	inconclusive: 31.6 µM [cytotoxic, single point]
COc1ccc(CCN2CCC(CNC(=O)c3cnn(-c4ccccc4)c3C3CCN(C(=O)OC(C)(C)C)CC3)CC2)cc1	inconclusive: 35.5 µM [cytotoxic, single point]
CN(C)c1ccc(CNC(=O)CCCn2ccc3cc(S(=O)(=O)N4CCCC4)ccc32)cc1	inconclusive: 31.6 µM [cytotoxic, partial curve, poor fit]
CCOc1ccccc1CNS(=O)(=O)c1csc(C(N)=O)c1	inconclusive: 35.5 µM [cytotoxic, partial curve, poor fit]
O=C(NC1CCCCC1)c1ccc(CSc2nc3cccnc3n2Cc2ccccc2F)cc1	inconclusive: 39.8 µM [cytotoxic, single point]
O=C(NCCc1ccccc1)c1ccc(CSc2nc3cccnc3n2Cc2ccccc2F)cc1	inconclusive: 31.6 µM [cytotoxic, single point]
CCCN1CCN(CCCNC(=O)c2ccc3c(c2)sc2nc(-c4ccc(OCC)cc4)cn23)CC1	inconclusive: 39.8 µM [cytotoxic, single point]
Cc1ccccc1S(=O)(=O)Cc1ccc(C(=O)NCCc2ccccc2)o1	inconclusive: 2.51 µM [rising, full curve, poor fit]
CC(C)N1CCc2c(sc(NC(=O)c3ccc(S(=O)(=O)N(C)C4CCCCC4)cc3)c2C(N)=O)C1	inconclusive: 39.8 µM [cytotoxic, single point]
O=C(Nc1c(C(=O)c2ccccc2)oc2ccccc12)c1ccc(F)cc1	inconclusive: 31.6 µM [rising, partial curve, poor fit]

Compound	Potency
O=C1CN(C(=O)c2ccc(S(=O)(=O)N3CCCC3)cc2)C(c2ccccc2)c2cc(Cl)ccc2N1 (configuration not stated)	inconclusive: 39.8 µM [cytotoxic, partial curve, poor fit]
CCOc1ccc(NC(=O)Cn2c(=O)cc(C)c3c(C)nn(C)c32)cc1	inconclusive: 7.08 µM [cytotoxic, full curve]
Cc1c(CN(C)C(=O)c2cc(-c3ccccc3)nc3ccc(Br)cc23)cnn1C	inconclusive: 2.82 µM [rising, full curve]
CCc1ccc(CNC(=O)c2cnc(N3CCCCC3)c3ccccc23)cc1	inactive
CCOc1ccc(C(=O)N2CCC(c3nc(-c4ccc(S(=O)(=O)N5CCCC5)cc4)no3)CC2)cc1	inconclusive: 25.1 µM [cytotoxic, single point]
CCOc1ccc(NC(=O)N(Cc2ccc(CC)cc2)Cc2cn[nH]c2-c2ccc(OC)cc2)cc1	inconclusive: 39.8 µM [cytotoxic, single point]
CCCN1CCc2nc(SCC(=O)Nc3ccc(C)c(Cl)c3)[nH]c(=O)c2C1	inconclusive: 31.6 µM [cytotoxic, single point]
Cc1c(C(=O)OC2CCCCC2)[nH]c2c1C(=O)CC(c1ccccc1)C2 (configuration not stated)	inactive
Cc1ccc2[nH]c(CSc3nnc(NC(=O)COc4ccccc4Cl)s3)cc(=O)c2c1	inconclusive: 0.794 µM [rising, partial curve, poor fit]
Cc1ccc(CNC(=O)c2sc3ncnc(N(C)C4CCCCC4)c3c2C)cc1	inconclusive: 28.2 µM [cytotoxic, partial curve, poor fit]
CCS(=O)(=O)N1CCC2(CC1)OC(=O)C(C)=C2C(=O)NCc1ccccc1C	inconclusive: 3.16 µM [rising, full curve, poor fit]
CCOc1ccc(NC(=O)CN2CCN(C3CCCCC3)C(=O)C2=O)cc1	inconclusive: 0.224 µM [cytotoxic, full curve]
Cc1c(-c2cccc(NC(=O)Nc3ccccc3)c2)nc2ncccn12	inconclusive: 3.98 µM [rising, partial curve, poor fit]
CCOC(=O)c1ccccc1NC(=O)c1ccc2c(Cl)c3c(nc2c1)CCC3	inactive
Cc1c(Cl)cccc1NC(=O)c1cc2sccc2n1Cc1ccc(F)cc1	inconclusive: 35.5 µM [cytotoxic, single point]
Clc1cccc(N2CCN(c3c4c(nc5nncn35)CCC4)CC2)c1	inconclusive: 14.1 µM [cytotoxic, partial curve]
CCc1nn(CCCC(=O)N2CCN(c3ccc(OC)cc3)CC2)c(=O)c2cc3occc3n12	inconclusive: 31.6 µM [cytotoxic, single point]
Cc1ccc(NC(=O)Cn2c(=O)oc3cc(S(=O)(=O)N4CCC(C)CC4)ccc32)cc1Cl	inconclusive: 25.1 µM [cytotoxic, partial curve, poor fit]
